Laboratory results as given in PubChem BioAssay (Tox21).
This list was built around the results that the source calls inconclusive (neither active nor inactive); the mix of calls is not that of the screen. For some assays here: Potencies beside an inconclusive call are fits to weak or partial responses and may not hold up. Active and inactive are the calls of the source. Unless noted, calls come from the whole dose curve; as a rule, active = well fitted curve in the direction sought with a large enough effect in the repeat runs; inconclusive = weak or mixed curves; inactive = no such curve, though single readings can be large; an effect the other way counts as inactive or inconclusive.

Key:
[1] = qHTS assay for identifying genotoxic compounds that show differential cytotoxicity against isogenic chicken DT40 cell lines with known DNA damage response pathways - Rev3 mutant cell line (AID 743014); settings: chicken DT40 Rev3-/- viability, CellTiter-Glo, 40 h; activity, negative = cytotoxicity: at 68.4 µM (top of the series) unless noted; note: nearly all actives have a fitted effect of over 55% in size; note: potency is the fitted concentration of half-maximal effect
[2] = molecular target: Androgen receptor (Homo sapiens) (UniProt P10275); test: qHTS assay to identify small molecule antagonists of the androgen receptor (AR) signaling pathway (AID 743035; active = well fitted inhibition curve with a large enough effect in the signal ratio in the repeat runs, not every such curve was filed as active; inconclusive = weak or mixed curves, or effect the other way; inactive = no such curve, though single readings can be large or run the other way; the % refers to the signal ratio; note: potency is the fitted concentration of half-maximal effect; for activity change, negative = inhibition: % is set by controls: 0 for no effect and ±100 for the full control effect); settings: HEK293 AR-UAS-bla, R1881-stimulated, beta-lactamase FRET, 16 h; activity change, negative = inhibition: at 58.5 µM (top of the series) unless noted
How it was run: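 Quantitative HTS of the Tox21 10K library used HEK293 AR-UAS-bla cells stimulated with R1881 alongside compound for 16 h at 37C, followed by beta-lactamase FRET detection (LiveBLAzer B/G, 2 h, RT).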

[3] = molecular target: Androgen receptor (Homo sapiens) (UniProt P10275); test: qHTS assay to identify small molecule agonists of the androgen receptor (AR) signaling pathway (AID 743036; active = well fitted activation curve with a large enough effect in the signal ratio in the repeat runs, with a control signal flat, not every such curve was filed as active; inconclusive = weak or mixed curves, or effect the other way; inactive = no such curve, though single readings can be large or run the other way; the % refers to the signal ratio; note: potency is the fitted concentration of half-maximal effect); settings: HEK293 AR-UAS-bla GripTite, beta-lactamase FRET ratio, 16 h; activation: at 62.4 µM (top of the series) unless noted
How it was run: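 Agonist activity was scored by beta-lactamase reporter fluorescence in stably transfected HEK293 cells exposed to compounds for 16 h at 37C and 5% CO2. Substrate loading took 2 h at room temperature.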

[4] = qHTS assay to identify small molecule antagonists of the androgen receptor (AR) signaling pathway using the MDA cell line - cell viability counter screen (AID 743041; note: nearly all actives have a fitted effect of over 45% in size; note: potency is the fitted concentration of half-maximal effect; for viability change, negative = cytotoxic: % is set by controls: 0 for no effect and ±100 for the full control effect); settings: MDA-kb2 viability, CellTiter-Fluor, 16 h, cells co-treated with R1881 androgen agonist; viability change, negative = cytotoxic: at 70.3 µM (top of the series) unless noted
How it was run: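 In this qHTS counter assay, fluorescence intensity after CellTiter-Fluor addition indicated viability of MDA-kb2 AR-luc cells given compounds and R1881 for 16 h at 37C.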

[5] = molecular target: Estrogen receptor (Homo sapiens) (UniProt P03372); test: qHTS assay to identify small molecule agonists of the estrogen receptor alpha (ER-alpha) signaling pathway using the BG1 cell line (AID 743079); settings: BG1Luc4E2 cells, ERE-luciferase agonist, 22 h; activation: at 70.3 µM (top of the series) unless noted; note: nearly all actives have a fitted effect of over 20% in size; note: potency is the fitted concentration of half-maximal effect; for activation: % is set by controls: 0 for no effect and ±100 for the full control effect
Aromatase (Homo sapiens) = Aromatase (Homo sapiens) (UniProt P11511); test: qHTS assay to identify aromatase inhibitors (AID 743083); note: nearly all actives have a fitted effect of over 55% in size; note: potency is the fitted concentration of half-maximal effect
[6] = qHTS assay to identify aromatase inhibitors - cell viability counter screen (AID 743084); settings: MCF-7 aro ERE viability, CellTiter-Fluor, 24 h; activity change, negative = cytotoxicity: at 70.3 µM (top of the series);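 note: cells stimulated with testosterone during compound exposure; potency is the fitted concentration of half-maximal effect; nearly all actives have a fitted effect of over 55% in size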
[7] = qHTS assay to identify small molecule antagonists of the androgen receptor (AR) signaling pathway - cell viability counter screen (AID 743033; note: nearly all actives have a fitted effect of over 45% in size; note: potency is the fitted concentration of half-maximal effect); settings: AR-bla HEK293 viability, CellTiter-Glo luminescence, 16 h; activity change, negative = cytotoxicity: at 58.5 µM (top of the series)
[8] = qHTS assay to identify small molecule antagonists of the estrogen receptor alpha (ER-alpha) signaling pathway - cell viability counter screen (AID 743074; calls by dose curve;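 note: HEK293 cells carrying ER-alpha-UAS-bla reporter stimulated with 17beta-estradiol; nearly all actives have a fitted effect of over 45% in size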; note: potency is the fitted concentration of half-maximal effect)
[9] = molecular target: Estrogen receptor (Homo sapiens) (UniProt P03372); test: qHTS assay to identify small molecule agonists of the estrogen receptor alpha (ER-alpha) signaling pathway (AID 743075; calls by dose curve;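 note: HEK293 GripTite cells with ER-alpha and UAS-driven beta-lactamase reporter; % is set by controls: 0 for no effect and ±100 for the full control effect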)
[10] = qHTS assay to identify small molecule antagonists of the estrogen receptor alpha (ER-alpha) signaling pathway using the BG1 cell line (AID 743080; calls by dose curve;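 note: BG1 cells stimulated with 17beta-estradiol alongside compound; nearly all actives have a fitted effect of over 25% in size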; note: potency is the fitted concentration of half-maximal effect); settings: BG1Luc4E2 ERE-luciferase antagonist mode, luminescence; activity change, negative = inhibition: at 70.3 µM (top of the series) unless noted
How it was run: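 Seeding, 24 h rest, compound transfer from DMSO, 17beta-estradiol addition, 21.5 h incubation, CellTiter-Fluor (30 min, 37 C), then ONE-Glo (30 min, room temperature): this sequence was run on BG1-Luc-4E2 reporter cells.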

[11] = qHTS assay for identifying genotoxic compounds that show differential cytotoxicity against isogenic chicken DT40 cell lines with known DNA damage response pathways - Rad54/Ku70 mutant cell line (AID 743015); settings: DT40 Rad54/Ku70 mutant viability, CellTiter-Glo, 40 h; activity change, negative = cytotoxicity: at 66.8 µM (top of the series); note: potency is the fitted concentration of half-maximal effect; nearly all actives have a fitted effect of over 60% in size
[12] = system: thyroid hormone receptor (rat, GH3 cells); test: qHTS assay to identify small molecule agonists of the thyroid receptor (TR) signaling pathway (AID 743066; calls by dose curve; note: potency is the fitted concentration of half-maximal effect); settings: GH3.TRE-Luc cells, TR agonist luciferase, 24 h; activation: at 83.9 µM (top of the series) unless noted
[13] = molecular target: Estrogen receptor (Homo sapiens) (UniProt P03372); test: qHTS assay to identify small molecule antagonists of the estrogen receptor alpha (ER-alpha) signaling pathway (AID 743069; active = well fitted curve in the direction sought with a large enough effect in the signal ratio in the repeat runs, not every such curve was filed as active; inconclusive = weak or mixed curves, or effect the other way; inactive = no such curve, though single readings can be large or run the other way; the % refers to the signal ratio; note: potency is the fitted concentration of half-maximal effect); settings: HEK293 ER-alpha-UAS-bla, beta-lactamase ratio, antagonist mode; activity, negative = inhibition: at 69.4 µM (top of the series) unless noted
How it was run: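 A 17beta-estradiol challenge was applied right after compound transfer to ER-alpha-UAS-bla HEK293 cells previously kept in charcoal-stripped serum. Plates stood 18 hr at 37C and 5% CO2; fluorescence was read following 2 hr FRET substrate loading at room temperature.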

[14] = qHTS assay to identify small molecule antagonists of the thyroid receptor (TR) signaling pathway (AID 743065); note: potency is the fitted concentration of half-maximal effect; nearly all actives have a fitted effect of over 55% in size
How it was run: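 GH3.TRE-Luc rat pituitary cells carrying two TR response elements driving luciferase were plated for 4 h, given compound plus 1 nM T3 (final), and incubated 23.5 h at 37 C. ONE-Glo luminescence measured reporter inhibition; CellTiter-Fluor fluorescence tracked cytotoxicity.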

[15] = qHTS assay to identify small molecule antagonists of the estrogen receptor alpha (ER-alpha) signaling pathway using the BG1 cell line - cell viability counter screen (AID 743081);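 note: compound given together with 17beta-estradiol as the ER stimulus; potency is the fitted concentration of half-maximal effect; nearly all actives have a fitted effect of over 45% in size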
[16] = qHTS assay to identify small molecule antagonists of the thyroid receptor (TR) signaling pathway - cell viability counter screen (AID 743064); settings: GH3.TRE-Luc viability, CellTiter-Fluor, 24 h; activity change, negative = cytotoxic: at 70.3 µM (top of the series) unless noted; note: potency is the fitted concentration of half-maximal effect; nearly all actives have a fitted effect of over 50% in size
How it was run: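 Same-well viability check: GH3.TRE-Luc cells stimulated with 1 nM T3 alongside test compound for 23.5 h, followed by CellTiter-Fluor fluorescence.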

[17] = molecular target: Androgen receptor (Homo sapiens) (UniProt P10275); test: qHTS assay to identify small molecule antagonists of the androgen receptor (AR) signaling pathway using the MDA cell line (AID 743042)
How it was run: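 MDA-kb2 cells (human breast carcinoma, stably carrying an MMTV-luciferase reporter responsive to AR and GR) were plated at 3,000 cells/well and preincubated 5 hr at 37C, then given compound plus R1881 agonist for 16 h. ONE-Glo luminescence was read.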
Tags give direction and shape of the fitted curve or compound fluorescence and quenching.

Chain of UniProt P10275 (P10275 whole entry, looked up): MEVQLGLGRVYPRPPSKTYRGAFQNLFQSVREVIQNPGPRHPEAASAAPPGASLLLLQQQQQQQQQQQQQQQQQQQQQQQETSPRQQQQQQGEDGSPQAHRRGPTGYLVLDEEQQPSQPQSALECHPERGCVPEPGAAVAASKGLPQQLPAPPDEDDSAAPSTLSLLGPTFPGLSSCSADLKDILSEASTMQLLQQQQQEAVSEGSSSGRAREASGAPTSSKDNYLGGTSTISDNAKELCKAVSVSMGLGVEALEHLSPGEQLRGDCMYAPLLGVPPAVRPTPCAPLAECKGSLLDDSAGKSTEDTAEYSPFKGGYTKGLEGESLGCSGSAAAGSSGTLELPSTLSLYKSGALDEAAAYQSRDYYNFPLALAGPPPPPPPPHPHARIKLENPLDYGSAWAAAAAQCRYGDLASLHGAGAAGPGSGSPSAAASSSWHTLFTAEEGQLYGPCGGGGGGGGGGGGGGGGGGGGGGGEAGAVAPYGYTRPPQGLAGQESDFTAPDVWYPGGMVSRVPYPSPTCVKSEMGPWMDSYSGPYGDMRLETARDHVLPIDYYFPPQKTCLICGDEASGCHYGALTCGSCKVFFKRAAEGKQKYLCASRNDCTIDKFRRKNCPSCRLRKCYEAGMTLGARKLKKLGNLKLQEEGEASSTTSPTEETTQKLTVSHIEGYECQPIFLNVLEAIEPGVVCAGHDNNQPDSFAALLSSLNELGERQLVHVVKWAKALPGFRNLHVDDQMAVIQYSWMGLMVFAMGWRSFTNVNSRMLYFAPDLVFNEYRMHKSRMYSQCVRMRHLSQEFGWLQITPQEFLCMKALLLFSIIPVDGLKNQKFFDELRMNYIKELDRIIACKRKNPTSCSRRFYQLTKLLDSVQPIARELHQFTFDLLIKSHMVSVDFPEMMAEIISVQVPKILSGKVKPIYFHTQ
Chain of UniProt P11511 (P11511 whole entry, looked up): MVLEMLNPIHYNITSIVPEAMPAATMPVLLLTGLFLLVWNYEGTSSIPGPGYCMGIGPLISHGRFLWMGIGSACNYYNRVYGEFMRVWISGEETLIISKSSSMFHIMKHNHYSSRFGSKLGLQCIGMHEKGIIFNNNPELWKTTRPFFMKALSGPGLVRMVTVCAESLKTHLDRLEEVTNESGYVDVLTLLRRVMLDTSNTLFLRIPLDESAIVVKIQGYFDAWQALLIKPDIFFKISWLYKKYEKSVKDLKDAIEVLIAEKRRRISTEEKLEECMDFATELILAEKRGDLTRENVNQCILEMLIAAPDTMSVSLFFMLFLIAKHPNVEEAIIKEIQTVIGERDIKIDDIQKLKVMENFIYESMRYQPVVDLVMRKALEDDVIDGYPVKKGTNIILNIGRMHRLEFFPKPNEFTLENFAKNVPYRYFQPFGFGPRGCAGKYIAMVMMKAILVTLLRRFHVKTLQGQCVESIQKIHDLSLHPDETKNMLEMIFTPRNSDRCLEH
Chain of UniProt P03372 (P03372 whole entry, looked up): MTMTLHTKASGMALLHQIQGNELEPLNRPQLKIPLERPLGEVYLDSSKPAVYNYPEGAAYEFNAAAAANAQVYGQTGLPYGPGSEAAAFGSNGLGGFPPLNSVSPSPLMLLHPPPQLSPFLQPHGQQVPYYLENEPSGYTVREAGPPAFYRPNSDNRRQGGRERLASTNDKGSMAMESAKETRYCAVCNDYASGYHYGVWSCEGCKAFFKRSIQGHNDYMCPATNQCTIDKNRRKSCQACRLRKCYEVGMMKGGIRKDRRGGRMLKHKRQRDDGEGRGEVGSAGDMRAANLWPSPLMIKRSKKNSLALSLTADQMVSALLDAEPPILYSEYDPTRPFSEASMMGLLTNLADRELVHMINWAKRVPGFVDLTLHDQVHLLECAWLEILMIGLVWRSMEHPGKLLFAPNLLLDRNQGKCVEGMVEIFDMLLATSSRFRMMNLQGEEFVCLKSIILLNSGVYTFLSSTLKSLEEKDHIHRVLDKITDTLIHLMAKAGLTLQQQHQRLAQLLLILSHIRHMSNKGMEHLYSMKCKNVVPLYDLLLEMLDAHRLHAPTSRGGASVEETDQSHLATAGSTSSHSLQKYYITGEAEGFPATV

With `CCN(CC)C(=O)/C(C#N)=C/c1cc(O)c(O)c([N+](=O)[O-])c1` the Potency [1] was inconclusive: 29.8 µM [rising, partial curve, poor fit], the activity change, negative = inhibition [2] was inconclusive: 4.86% and the Potency [3] was inconclusive: 7.56 µM [rising, partial curve]. The Potency [4] was “inactive”, the Potency [5] was “inactive” and the Potency (Aromatase (Homo sapiens)) was “inactive”. The Potency [6] was inconclusive: 13.3 µM [cytotoxic, partial curve].

With `CC(=O)OCC(=O)[C@@]1(O)CC[C@H]2[C@@H]3CCC4=CC(=O)CC[C@]4(C)[C@H]3C(=O)C[C@@]21C` the Potency [1] was “inactive”, the Potency [7] was “inactive” and the Potency [8] was inconclusive: 13.4 µM [cytotoxic, single point]. The Potency [9] was “inactive” and the Potency [10] was inconclusive: 0.0422 µM [rising, full curve, poor fit].

With `CC(CCc1ccc(O)cc1)NCCc1ccc(O)c(O)c1` (stereo not drawn) the Potency [1] was active: 26.6 µM, the Potency [11] was active: 23.7 µM and the activation [12] was inconclusive: 1.8% [phenotype inactive]. The activity, negative = inhibition [13] was inconclusive: 32.6%, the Potency (Aromatase (Homo sapiens)) was inconclusive: 33.5 µM [inhibitor, single point] and the Potency [6] was inconclusive: 29.8 µM [cytotoxic].

With `O=S(=O)(O)c1ccc(N=Nc2c(O)ccc3ccccc23)cc1` the Potency [1] was active: 30.6 µM, the Potency [7] was inconclusive: 54.9 µM [cytotoxic, single point] and the Potency [14] was inconclusive: 68.6 µM [inhibitor, single point]. The Potency [9] was “inactive”, the Potency [10] was inconclusive: 24.3 µM [falling, partial curve] and the Potency [15] was active: 27.3 µM. The Potency (Aromatase (Homo sapiens)) was inconclusive: 34.4 µM [inhibitor, partial curve].

With `O=C1c2ccccc2C(=O)c2c(O)c(O)cc(O)c21` the activity, negative = cytotoxicity [1] was inconclusive: -63.7%, the Potency [2] was inconclusive: 21.9 µM and the Potency [3] was inconclusive: 49 µM. For the same compound, the Potency [4] was inconclusive: 30.6 µM [cytotoxic, partial curve], the Potency [16] was active: 54.5 µM and the Potency [14] was inconclusive: 68.6 µM [inhibitor]. The Potency [5] was inconclusive: 24.3 µM [inhibitor, partial curve, poor fit], the Potency [10] was inconclusive: 15.4 µM [falling, partial curve, poor fit] and the Potency [15] was inconclusive: 68.6 µM [cytotoxic, single point]. For the same compound, the Potency [6] was active: 27.3 µM.

In the case of `CN1CCN(Cc2cc(-c3ccc4[nH]c(=O)oc4c3)co2)[C@@H](c2ccc(F)cc2)C1`, the Potency [1] was active: 16.6 µM, the Potency [7] was inconclusive: 21.1 µM [cytotoxic, partial curve, poor fit] and the Potency [12] was inconclusive: 52.4 µM [inhibitor, partial curve, poor fit]. For the same compound, the Potency [13] was active: 47.1 µM [inhibitor], the Potency [5] was inconclusive: 46.7 µM [inhibitor, partial curve] and the activity change, negative = inhibition [10] was inconclusive: -19.7%. The Potency [15] was inconclusive: 18.6 µM [cytotoxic, partial curve, poor fit], the Potency (Aromatase (Homo sapiens)) was inconclusive: 58.8 µM [inhibitor, single point] and the Potency [6] was inconclusive: 52.4 µM [cytotoxic, partial curve].

In the case of `CCCCCCCCCCCC(=O)OCC(O)CO` (stereo not drawn), the Potency [1] was inconclusive: 68.6 µM [cytotoxic, single point], the Potency [7] was inconclusive: 12 µM [rising, single point] and the Potency [14] was inconclusive: 61.1 µM [inhibitor, partial curve, poor fit].

For `COC(=O)CC(C(C)=O)C(=O)OC` (stereo not drawn), the Potency [1] was inconclusive: 54.5 µM [cytotoxic, partial curve, poor fit] and the Potency [2] was “inactive”.

With `CN(CCCN1c2ccccc2CCc2ccccc21)CC(=O)c1ccc(Cl)cc1` the Potency [1] was active: 13.3 µM, the Potency [7] was inconclusive: 21.3 µM [cytotoxic, partial curve, poor fit] and the Potency [4] was inconclusive: 29.8 µM [cytotoxic, partial curve, poor fit]. For the same compound, the activation [12] was inconclusive: -7.85% [phenotype inactive] and the Potency [8] was “inactive”.

For `COC(=O)N/N=C/c1c[n+]([O-])c2ccccc2[n+]1[O-]`, the Potency [1] was inconclusive: 10.6 µM [cytotoxic, partial curve], the Potency [11] was inconclusive: 13.3 µM [cytotoxic, partial curve, poor fit] and the Potency [8] was “inactive”.

In the case of `CC(C)CC(=O)OCc1ccccc1`, the Potency [1] was inconclusive: 68.6 µM [cytotoxic, single point], the Potency [11] was inconclusive: 68.6 µM [cytotoxic, partial curve, poor fit] and the Potency [12] was “inactive”.

For `Cc1cc(O)ccc1N`, the Potency [1] was active: 6.14 µM, the Potency [7] was inconclusive: 49.2 µM [cytotoxic, single point] and the Potency [2] was inconclusive: 6.2 µM [rising, full curve]. The activation [3] was inconclusive: 2.62% [at 79.1 µM], the Potency [4] was inconclusive: 61.4 µM [cytotoxic, single point] and the Potency [17] was inconclusive: 48.8 µM [inhibitor, partial curve]. The Potency [5] was “inactive” and the activity change, negative = inhibition [10] was inconclusive: -18.1% [at 95 µM].
